# Source: PubChem BioAssay AID463173 (ICCB-Longwood Screening Facility, Harvard Medical School, 2010)
# In all, about 52,000 compounds went through this assay and about 4,300 (8.3%) were called active. Rule as the data show it: active = survival mostly below about 52% (no sharp cut-off); inactive = mostly above about 56%. Some of the results follow.
# System: DeltatarO mutant
# Experiment: S. aureus survival, RN4220 and DeltatarO strains – OD600, teichoic acid synthesis inhibitors, primary screen (AID 463173)
# Conditions: S. aureus RN4220 wild type/DeltatarO growth, OD600, 18 h, active compounds read low, screened at 18.75 µg/mL (by protocol)
row,SMILES,survival
1,COc1ccc(-c2nc3c(c(SCC(=O)Nc4ccccc4OC)n2)Cc2cccc(C)c2O3)cc1,inactive: 89%
2,CCCCCn1c(=O)[nH]c2cc(C(=O)N3CCN(c4cccc(OC)c4)CC3)ccc2c1=O,active: 55%
3,CCCSc1ncc(Cl)c(C(=O)Nc2scc(-c3ccc(C)cc3)c2C(=O)OCC)n1,inactive: 62%
4,CCOCCCNC(=O)c1cc(=O)[nH]c2ccc(S(=O)(=O)N3CCCC3)cc12,inactive: 64%
5,CCOc1ccc(CNC(=O)c2cccn2-c2nnc(N3CCCCC3)s2)cc1OC,inactive: 92%
6,CCCCC(=O)Nc1c(C(=O)N2CCN(c3ccccc3)CC2)oc2ccccc12,inactive: 80%
7,O=C(Nc1ccc(C(=O)OCc2cc(=O)n3nc(C4CC4)sc3n2)cc1)c1cccc(Cl)c1,inactive: 76%
8,CCc1ccccc1NC(=O)C(CC)Oc1ccccc1-c1nnc(-c2ccccc2)o1 (configuration not stated),active: 32%
9,CCOc1ccc(CCNC(=O)c2cccc(-n3c(C)nc4cccnc43)c2C)cc1,inactive: 79%
10,CCOC(=O)CCCN1C(=O)CCn2nc(-c3cn(C)c4ccccc34)cc21,inactive: 69%
11,C=CCNc1nc(NCc2ccco2)nc(OCC)n1,inactive: 86%
12,CCCCN(Cc1ccccc1)S(=O)(=O)c1cc(Br)cc2c1N(C(C)=O)CC2,inactive: 63%
13,COc1ccc(S(=O)(=O)N(Cc2cc3cc4c(cc3n3nnnc23)OCO4)C2CCCCC2)cc1,inactive: 76%
14,CC(C)CCNC(=O)c1c2c(nc3ccccc13)C(=O)N(C1CCCCC1)C2,inactive: 101%
15,CC(=O)N1CCOc2cc(S(=O)(=O)Nc3c(C)cccc3C(C)C)c(Cl)cc21,inactive: 72%
16,O=C(Nc1ccccc1F)C1CCN(S(=O)(=O)c2ccc3c(c2)CCCN3C(=O)C2CCC2)CC1,inactive: 80%
17,Cc1ccc(-c2nc(CS(=O)CC(=O)N3CCN(c4ccc(F)cc4)CC3)c(C)o2)cc1 (configuration not stated),inactive: 57%
18,CCC(C)NC(=O)Cc1ccc(NC(=O)N2CCCCc3ccccc32)cc1 (configuration not stated),inactive: 93%
19,CC(C)Oc1ccc(CNC(=O)C2CCCCN2S(=O)(=O)c2ccc(F)cc2)cc1 (configuration not stated),inactive: 80%
20,CC(=O)Nc1nc2ccc3ccccc3c2s1,inactive: 89%
21,Cc1cc(C)cc(OCc2cc(=O)n3c4c(sc3n2)CCCC4)c1,inactive: 91%
22,N#Cc1ccccc1NC(=O)C(=O)NCC(c1ccc2c(c1)OCO2)N1CCOCC1 (configuration not stated),inactive: 71%

row,SMILES,survival
1,Cc1ccc(-n2c(=O)c3oc4ccccc4c3n(CC(=O)Nc3ccc(F)c(Cl)c3)c2=O)cc1C,inactive: 65%
2,COc1ccc(CN(C(=O)CN2C(=O)COc3ccccc32)C2CCCC2)c(OC)c1,inactive: 69%
3,COc1ccccc1NC(=O)Cn1nnc(C(=O)Nc2ccccc2Br)c1N,inactive: 89%
4,CCc1cccc(C)c1NC(=O)Cn1cc2c(n1)CCCCC2,inactive: 90%
5,O=C(Nc1ccccc1)C1C2C=CC3(O2)C1C(=O)N(C1CCCC1)C3C(=O)NC1CCCCC1 (configuration not stated),inactive: 59%
6,CC(=O)N1CCN(c2csc3ccc(Br)cc3c2=O)CC1,inactive: 94%
7,CCC(C)NC(=O)CSc1nc(-c2ccc(F)cc2)cc(C(F)(F)F)n1 (configuration not stated),inactive: 86%
8,COC(=O)c1ccccc1NC(=O)c1cnc2sc(N3CCOCC3)nn2c1=O,inactive: 125%
9,O=C(CN1C(=O)COc2ccc(S(=O)(=O)N3CCCCCC3)cc21)NCCc1ccccc1,inactive: 85%
10,Cc1ccc(NC(=O)N2CCN(C)c3ncccc32)cc1C,inactive: 90%
11,COC(=O)c1ccccc1NC(=O)N1CCC(n2c(C)nc3cccnc32)CC1,inactive: 115%
12,COc1cc(OC)c(N(C)C(=O)Cn2ncc3c(=O)oc4ccccc4c32)cc1Cl,inactive: 91%
13,Cc1ccc(CN2C(=O)N(c3ccccc3)C(=O)C2CC(=O)Nc2ccccc2)cc1 (configuration not stated),inactive: 73%
14,COc1ccc2cc(CNc3ccc(C)cc3)c(=O)n(CC(=O)Nc3cccc(C(F)(F)F)c3)c2c1,inactive: 81%
15,CCOC(=O)CSc1nc2c(sc3cccc(F)c32)c(=O)n1Cc1ccc(OC)cc1,inactive: 87%
16,COc1ccccc1-n1c(=O)c2c3c(sc2n(Cc2ccccc2F)c1=O)CN(C(C)=O)CC3,inactive: 120%
17,CC(C)(C)C(=O)Nc1ccc2nc(SCC(=O)N3CCc4ccccc43)sc2c1,inactive: 109%
18,Cc1ccc(S(=O)(=O)c2cn(CC(=O)Nc3ccc4c(c3)OCO4)c3ccccc3c2=O)cc1C,inactive: 112%
19,CS(=O)(=O)Cc1nc2ccccc2oc1=O,inactive: 64%
20,O=C(NCCS(=O)(=O)N1CCN(c2ccc(F)cc2)CC1)C1CC(=O)N(c2ccccc2)C1 (configuration not stated),inactive: 89%
21,CCOc1ccc(NC(=O)c2cc3cc4cc(OC)ccc4nc3s2)cc1,inactive: 82%
22,Cc1cccc(NS(=O)(=O)c2ccc3c(c2)OCC(C(=O)N2CCCC2)O3)c1C (configuration not stated),inactive: 67%

row,SMILES,survival
1,CCc1nn(CCCC(=O)NCc2cc(Br)ccc2OC)c(=O)c2cc3occc3n12,active: 46%
2,COc1cccc(C(=O)Nc2cccc(C(=O)OCc3cc(=O)n4c5c(sc4n3)CCCC5)c2)c1,inactive: 98%
3,COc1ccc(Cn2nnnc2CN2CCc3ccccc32)cc1,inactive: 73%
4,CCCN1CCN(CCNC(=O)Nc2ccccc2OCC)CC1,inactive: 60%
5,COc1cc2nc(C3CCC3)n(NC(=O)c3ccccc3C)c(=O)c2cc1OC,inactive: 104%
6,CCCN(Cc1cccs1)C(=O)Nc1ccc(Br)cc1F,inactive: 57%
7,Cc1cc2c(n1-c1ccc(C(=O)NCCc3ccccc3)cc1)CCC(C)C2 (configuration not stated),inactive: 77%
8,COc1ccc2[nH]c(=O)c(CN(C(=O)c3cccc(Cl)c3)c3cccc(C)c3)cc2c1,inactive: 60%
9,CCN1CCN(c2ncc3c(n2)CCN(Cc2ccc(OC)c(OC)c2)C3)CC1,inactive: 79%
10,Cc1cc2c(n1-c1ccc(C(=O)NCc3ccc(OC(C)C)cc3)cc1)CCCC2,inactive: 74%
11,COc1cc(-c2oc3ccc(C)cc3c(=O)c2O)cc(OC)c1OC,inactive: 89%
12,COc1ccc2c(c1)c1c(c(=O)n(-c3cccc(C)c3)c(=O)n1CC(=O)NCC1CCCO1)n2C (configuration not stated),inactive: 76%
13,COc1ccccc1NC(=O)CSc1oc(-c2ccccc2)nc1S(=O)(=O)c1ccccc1,inactive: 145%
14,CCC(Sc1nc(N)cc(=O)[nH]1)C(=O)Nc1cccc2ccccc12 (configuration not stated),inactive: 97%
15,COc1ccccc1CNC(=O)CCCn1c(=O)c2ccccc2n(Cc2ccccc2C#N)c1=O,inactive: 139%
16,Cc1cccc(Cc2c(C)nc3nc(SCc4ccccc4F)nn3c2C)c1,inactive: 84%
17,COc1cccc(CNC(=O)CCCCCn2c(=O)[nH]c3cc(OC)c(OC)cc3c2=O)c1,inactive: 154%
18,CCN1C(=O)c2ccccc2S(=O)c2ccc(C(=O)N3CCN(c4ccccc4OC)CC3)cc21 (configuration not stated),inactive: 71%
19,CN1CCN(C(=O)NC2CCCCC2)CC1,inactive: 91%
20,CN(Cc1ccccc1)C(=O)c1cc(-c2cccc(Cl)c2)on1,active: -15%
21,COc1cc(C(CC(=O)Nc2cc(C)ccn2)N2Cc3ccccc3C2=O)cc(OC)c1OC (configuration not stated),inactive: 76%
22,CCOC(=O)c1c(C)[nH]c(C)c1S(=O)(=O)NCC(=O)NCc1ccccc1Cl,inactive: 96%

row,SMILES,survival
1,CCc1ccc(-n2nc(CO)c(C(=O)NCc3cccnc3)n2)cc1,inactive: 51%
2,O=C(c1ccc2c(c1)N(Cc1ccc(Cl)cc1)C(=O)c1ccccc1S2(=O)=O)N1CCN(Cc2ccccc2)CC1,inactive: 78%
3,O=S(=O)(c1ccc(Br)cc1)c1nnn2c1nc(NCCc1ccccc1)c1sccc12,inactive: 37%
4,Cc1ccc(CCNC(=O)CCn2nc(-c3ccc(Cl)cc3)ccc2=O)cc1,inactive: 67%
5,COc1ccc(N2C(=O)CCSC23C(=O)N(Cc2ccc(F)cc2)c2ccccc23)cc1 (configuration not stated),inactive: 75%
6,Cc1ccc(-c2onc(C)c2C)cc1S(=O)(=O)Nc1cccc(Cl)c1C,inactive: 61%
7,COc1ccc(CCCc2n[nH]c(=S)n2C)cc1C,inactive: 74%
8,Cc1nc2ccc(S(=O)(=O)NC(C(=O)N3CCN(c4cccc(Cl)c4)CC3)C(C)C)cc2s1 (configuration not stated),inactive: 80%
9,O=C(NC1CCCCC1)NC1CCN(CC(=O)c2ccc(Cl)cc2)CC1,inactive: 71%
10,CCc1ccc(C(=O)NC2=NC(c3cc(OC)ccc3OC)CC(=O)N2)cc1 (configuration not stated),inactive: 101%
11,Cc1ccc(-c2nn(C)c(=O)c3ccccc23)cc1S(=O)(=O)NCCCN(C)C,inactive: 61%
12,O=C(Nc1ccc(-c2nc3cc(NC(=O)c4ccc(Cl)cc4)ccc3o2)cc1)c1ccc(Cl)cc1,inactive: 88%
13,COc1ccc(-c2cc(C(F)(F)F)n3nc(C(=O)Nc4sc5c(c4C(=O)OC(C)C)CCC(C)C5)cc3n2)cc1 (configuration not stated),inactive: 78%
14,CCCN(CCC)C(=O)C1CCCN(S(=O)(=O)c2cc(Br)cc3c2N(C(=O)CC)CC3)C1 (configuration not stated),inactive: 91%
15,COc1ccc(CNC(=O)C(OC(=O)c2ccco2)c2ccc(C)cc2)cc1 (configuration not stated),inactive: 74%
16,COc1ccc(C2=C(C)C(N3CCN(c4ccc(OC)cc4)CC3)=NS2(=O)=O)cc1,inactive: 91%
17,CCOCCCn1c(=N)c(C(=O)NC(C)c2ccccc2)cc2c(=O)n3cccc(C)c3nc21 (configuration not stated),inactive: 122%
18,COc1ccc(C(=O)NNc2ncnc3c2cnn3-c2ccc(C)cc2C)cc1,active: 0%
19,CN(C(=O)c1ccc2c(c1)N(Cc1ccc(F)cc1)C(=O)c1ccccc1S2(=O)=O)C1CCCCC1,inactive: 71%
20,CCC(CC)C(=O)Nc1nnc(S(=O)(=O)N2c3ccccc3CC2C)s1 (configuration not stated),inactive: 61%
21,Fc1cccc(-c2nnn3c2nc(NCc2ccc4c(c2)OCO4)c2ccccc23)c1,inactive: 85%
